The source gives no read counts; variants with many changes may rest on few reads.
B1: LINE1-mini (parent)
chain: GGCAGAGCUCAACACAGCGUGGCAAAGUGGCUGUGGCUAGACUGCC

Variants of: B1
Assay: self-cleavage, relative activity (ratio to wild type); higher = more cleavage; in vitro, sequencing; the parent is a self-cleaving ribozyme

Variant	self-cleavage
GGCAGAGCUCAAUACAGCGUGGCAAAGUGGCUGGGGCUAGAUUGCC	0.01
GGCAGAGCUCAACCCAGCGUGGCAAUGUGGUUGUGGCUAGACUGCU	0.02
GGCAGAGCUCAACCCCGCUUGGCAAAGUGUCUGUGGCUAGACUGCA	0.07
GGCAGAGCUCAACCCAGCGUGGCAUAGUGGCUGUGGCUAUACUGCC	0.06
GGCAGAGCUCAACCCAGCGUGGCAAUGUGGCUGUAGCUAGACUCCA	0.03
GGCAGAGCUCAACCAAGCGUGACAAAGUGGCUGUGGCUAGACUGCC	0.01
GGCAGAGCUCAAUACAGCGUGGCAAAGUCGUUGUGGCUAGACUGCC	0.05
GGCAGAGCUCAAUACAGCGUGGCAAAGUGUCUAUGGCUAGACUGCA	0.03
GGCAGAGCUCAACCCAGAAUGGCAGAGUGGCUGUGGAUAGACUACC	0.01
GGCAGAGCUCAACCCAGCGUGGCAAAGUGGCUGUGGCUAGCCUGCG	0.03
GGCAGAGCUCAACCUAGCGUGGCAAAGUGGCUGUGGGUAGACUGCC	0.03
GGCAGAGCUCAACCCAGCGUGGCCAAGUGGCUGUCAGUAGACUGCC	0.24
GGCAGAGCUCAAUACAGCGUGGCAAAGUGGCUGUGACUAUACUGCC	0.01
GGCAGAGCUCAAUACAGCGUGGCAAAGCGGCUCUGGCUAGACUGCC	0.01
GGCAGAGCUCAAUACAGCGUGGCAAAGUGACUGUGGCUAGUCUGAC	0.04
GGCAGAGCUCAAUACAGCGUGGCAAAGUCGCUGUGGCUACCCUGCC	0.05
GGCAGAGCUCAACCCAGAGUGGCAAAUUGGCUGUGGAUAGACUGCC	0.03
GGCAGAGCUCAAUACAGCGUGGCAAAGUGGCUGUGGCCAUACUGCC	0.05
GGCAGAGCUCAAUACAGCGUGGCAAAGUGGCUUUGGCUAAACUGCC	0.09
GGCAGAGCUCAAUACAGCGGGGCAAAGUGGCUGUGGCUAAACUGCC	0.06
GGCAGAGCUCAAUACAGCGUGGCAAAGUGGCUGCGGCUCGACUGCC	0.03
GGCAGAGCUCAAUACAGCGUGGCAAAGUCGCUGUGGCUAAACUGCC	0.03
GGCAGAGCUCAACCGAGCGUGUCAAAGUGGCUGUGGCUAGACUGCC	0.05

Variant	self-cleavage
GGCAGAGCUCAAUACAGCGUGGCAAAGUGGCUGUGGCUAAGCUGCC	0.08
GGCAGAGCUCAAUACAGCGUGGCAAAGUAGCUGUGGAUCGACUGCC	0.07
GGCAGAGCUCAACCUAGGGUGUCAAAGUGGCUGUGGCUAGACUGCC	0.04
GGCAGAGCUCAACCCAGAGUGGCAAAGUGGAUGUGGCUCGACUGCC	0.05
GGCAGAGCUCAACCAAGCGUGGCAAAGUGGCGGUGGCUAGAUUGCC	0.02
GGCAGAGCUCAAUACAGCGUGGCAAAGUGGCUGUAGCUCGACUGCC	0.06
GGCAGAGCUCAACCAAGCGUGGCAAAGUGUCCGUUGCUAGACUGCC	0.02
GGCAGAGCUCAAUACAGCGUGGCAAAGUGGCUGUGGCUACACGGCC	0.04
GGCAGAGCUCAAUACAGCGUGGCAAAGCGGCUGUGGCUAGACUCCC	0.08
GGCAGAGCUCAACCGAGCGUGGCAAAGUGGCUGUGGCUAGCCUGCC	0.06
GGCAGAGCUCAACCCAGCGUGGCAAAGUGGCUGUGGCUUGCCUGCC	0.01
GGCAGAGCUCAAUACAGCGUGGCAAAGUGGCUGUGGCUAGACAUCC	0.07
GGCAGAGCUCAAUACAGCGUGGCAAAGGGGUUGUGGCUAAACUGCC	0.03
GGCAGAGCUCAAUACAGCGGGUCAAAGUGGCUGUGGCUAGACUGCC	0.05
GGCAGAGCUCAACCCCGUGUGGCAAAGGGGCUGUGGCUAGACUGCC	0
GGCAGAGCUCAACCCCGCGUGGCAAAGUGGCUGUGGCUAGCCUGCC	0.02
GGCAGAGCUCAACCCCGCGUGGGAAAGUGGCUGUGGCUAGCCUGCC	0.03
GGCAGAGCUCAACCUAGCAUGGCAAAGUGGCUGUGGCUAGACUGCC	0.08
GGCAGAGCUCAACCCAGCGUGGCAACGUGGUUGUGGCUAGGCAGCC	0
GGCAGAGCUCAAUACAGCGUGGCAAAGUGGCUGUGGCUAGACGGCA	0.03
GGCAGAGCUCAACCGAGCGUACCAAAGUGGAUGUGGCUAGACUGCC	0.01
GGCAGAGCUCAACCAAGCGUGGCAAAGCGGCUGUGUCUAGACUGCC	0.06
GGCAGAGCUCAACCCAGAGUGGCAAAGUGGCUGUGGCUAGAGUGCC	0.04

Variant	self-cleavage
GGCAGAGCUCAAUACAGCGUGGCAAAGUUGAUGUGGCUAGAUUGCC	0.02
GGCAGAGCUCAACCAAACGUGACAAAGUGGCUGUGGCUAGACUGCC	0.04
GGCAGAGCUCAAUACAGCGUGGCAAAGUGCCUAUAGCUAGAGUGCC	0.04
GGCAGAGCUCAAUACAGCGUGGCAAAGUGGCUGGGGCUAGACUUCC	0.03
GGCAGAGCUCAACCAAGCGUGGAAGAGUGGAUGUGGCUAUACUGCC	0
GGCAGAGCUCAAUACAGCGUGGCAAAGUGGCUGUGGCGAGACUGAC	0.01
GGCAGAGCUCAACCAUGCGUGGCAAAGUGGCUGUGGAUAGACUGCC	0.05
GGCAGAGCUCAACCCCGCGUGUCAAAGUGGCUGUGGCUAGACUGCC	0.11
GGCAGAGCUCAAUACAGCGUGGCAAAGUUGCUGUGGCUAGACUCCC	0.13
GGCAGAGCUCAACCCGGCGUGGCAAAGUGGCUGUGGCUAGAAUGCC	0.07
GGCAGAGCUCAAUACAGCGAUGCAAAUUGGCUGUGGCUAGACUGCC	0.18
GGCAGAGCUCAACCCGGCGUGGCAAAGUGGCUGUGGUUAGACUGCC	0.03
GGCAGAGCUCAAUACAGCGUGGCAAAGUGGCUGUUGCUCUACUGCC	0.11
GGCAGAGCUCAAUACAGCGGUGCAAAGUGGCUGUGGCUAGACUGCC	0.14
GGCAGAGCUCAACCCAGCGUGGCAGAGUGACUGUGGCUAGACUGAG	0.01
GGCAGAGCUCAAUACAGCGCGGCAAAGUGGCUGUAACUAGACUGCC	0.01
GGCAGAGCUCAAUACAGCGUGGCAAAGUGGCUUUGGCCAGACUGCC	0.03
GGCAGAGCUCAAUACAGCGUGGCAAAGUGGCUGGGGCUAGCCUGCC	0.03
GGCAGAGCUCAAUACAGCGUGGCAAAGUUGUUGUGGCUAGACUGCG	0.06
GGCAGAGCUCAACCCAGCGUGGCAAGGUGGCCGUGUCUAGAGUGCC	0.01
GGCAGAGCUCAAUACAGCGUGGCAAAGUCGCCGUGGCUAGACUGCU	0.04
GGCAGAGCUCAACCCAGCGUGGCAACGUGGCUGUUGCUAGACUGCC	0.21
GGCAGAGCUCAAUACAGCGUGGCAAAGCGGCUGUGGCUAGACUGUC	0.07

Variant	self-cleavage
GGCAGAGCUCAACCCAGCGUGGCAAUGUGGCUGUGGCGAGACUACC	0
GGCAGAGCUCAACCUAGCGUGGCAAAGUGGUUGUGGCUAGACUCCC	0.01
GGCAGAGCUCAAUACAGCGCGGCAAAGUGGCUGUGGCUAGACCGCC	0.05
GGCAGAGCUCAACCAAGAGUGGCUAAGUGGCUGUGUCUAGACUGCC	0.02
GGCAGAGCUCAAUACAGCGUGGCAAAGUGGCUGGGGCCAUACUGCC	0.02
GGCAGAGCUCAACCCAGCGUGGCAAAGUGGCUGUGGCUCGGCUGCC	0.01
GGCAGAGCUCAAUACAGCGUGGCAAAGUGGCUGACGCUAGACUGCC	0.03
GGCAGAGCUCAAUACAGCGUGGCAAAGUGGCUAUAGCUAGACUGCC	0.14
GGCAGAGCUCAACCCGGCGUGGCAGAGUGGCUGUUGCUAGACUGCC	0.07
GGCAGAGCUCAACCUAGCGUGGCAAAGUGGCUGUGCCUAGACUGCC	0.02
GGCAGAGCUCAAUACAGCGUGGCAAAGUGCCUGUGGCUAGACAGCC	0.09
GGCAGAGCUCAACCCAGCGUGGCAACAUGGCUGUGGCUAGACUGCC	0.04
GGCAGAGCUCAACCCAGCGUGGCAAGGUGGCUGUGGCUCGACUGCC	0.01
GGCAGAGCUCAAUACAGCGUGGCAAAGUGGCUUUUGCUAAACAGCC	0.1
GGCAGAGCUCAAUACAGCGUGGCAAAGUGGCUGUUUCUAGACUGUC	0.18
GGCAGAGCUCAACCCAGCGUGGCAACGUGCCUGUGGAUAGACUGCC	0.03
GGCAGAGCUCAAUACAGCGUGGCAAAGUGGCUGUGGCUAGACUCUC	0.11
GGCAGAGCUCAAUACAGCGGGGUAAAGUGGCUGUGGCUAGACUGCC	0.05
GGCAGAGCUCAACCAAGCGAGGCCAAGUGGCUGUGGCGAGACUGCG	0
GGCAGAGCUCAACCUAGCGUGGCAAAGUGGUUUCGGCUAGACUGCC	0.11
GGCAGAGCUCAAUACAGCGUGGCAAAGACGGUUUGCCUAGACUGCC	0.04
GGCAGAGCUCAAUACAGCGUGGCAAAGAGGCUGAGGCUAGACUGCC	0.08
GGCAGAGCUCAAUACAGCGUGGCAAAGCGGCUGUGGCUCGAGUGCC	0.05

Variant	self-cleavage
GGCAGAGCUCAACCCUGCGUGGCAAAGUGGCUGUGGCUAGUCUGCC	0.04
GGCAGAGCUCAAUACAGCGUGGCAAAGUAGCUUUGGCUUGACUGCC	0.02
GGCAGAGCUCAAUACAGCGUGGCAAAGUGGCUAUGGCUACACUGCC	0.04
GGCAGAGCUCAACCCAGCGUGGCAGAGUGGUUGUAGCUAGACUGCC	0
GGCAGAGCUCAACCCUGUGUGGCAAAGUGGCUGUGGCUAGACUGCC	0.03
GGCAGAGCUCAACCUAGCGUGGCAAGGUGGCGGUGGCUAGACUGCC	0.05
GGCAGAGCUCAACCCAGCGUGGCUAAGUGGCUGUUGCUAGUCGGCC	0.08
GGCAGAGCUCAACCCUGCGUGGCAAAGUCGCUGUGGCUAGACUGAC	0.04
GGCAGAGCUCAACCCGGCGUGGCAAAGUGGCUAUUGCUAGACUGCC	0.06
GGCAGAGCUCAACCCAGCGUGGCAAAGUGGCUGUGGCUAGUCUUCC	0.11
GGCAGAGCUCAACCCAGCGUGGCAGAGGGGCUAUGGCUAGACAGCC	0.03
GGCAGAGCUCAAUACAGCGGGGCAAAGUGGCUGUGGCUAGACUGCG	0.05
GGCAGAGCUCAAUACAGCGUGGCAAAGUGGCUGUGGCUAUACUGCG	0.11
GGCAGAGCUCAACCCCUCGUGGCAAAGUGGCUGUGGCUAGACUGCC	0.09
GGCAGAGCUCAACCCAGCGUGGCGAAGUGGCUGUAGAUAAACUGCC	0.01
GGCAGAGCUCAAUACAGCGUGGCAAAGUCGCUGUGACUAGACUGCC	0.21
GGCAGAGCUCAAUACAGCGUGGCAAAGUCGCUGUGUCUAGACUGCC	0.05
GGCAGAGCUCAAUACAGCGAGGCCAAGUGGCUGUGGCUAGACUGGC	0.04
GGCAGAGCUCAAUACAGCGUGGCAAAGUGGCUGUGGCAAGGCUGCC	0.07
GGCAGAGCUCAACCUAGCGUGGCAAAAUGGCUGGGGCUAGACUGCC	0.29

Source: the RNAGym collection of RNA variant scans (doi:10.7554/elife.90254)
